Here are results for 1 molecule from patent US20230056881A1 (Merck KGaA, published 2023).

This assay deals with T1, human PD-L1 (human, UniProt Q9NZQ7).
T1 construct: whole, on cells; also called Programmed Death Ligand 1; HEK/PD-L1 cells
The assay is described as follows: FACS on HEK cells stably transfected to express human PD-L1.

human PD-L1, sequence (Q9NZQ7 19-290): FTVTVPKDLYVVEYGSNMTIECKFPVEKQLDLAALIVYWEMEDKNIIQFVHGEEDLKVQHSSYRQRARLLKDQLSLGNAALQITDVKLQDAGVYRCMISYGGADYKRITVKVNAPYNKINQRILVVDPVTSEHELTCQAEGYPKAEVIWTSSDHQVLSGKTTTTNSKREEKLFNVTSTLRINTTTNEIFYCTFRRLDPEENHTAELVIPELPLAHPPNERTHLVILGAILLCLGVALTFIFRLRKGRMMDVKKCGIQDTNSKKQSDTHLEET

B1: anti-PD-L1(mut)/TGFβ Trap (other)
heavy: EVQLLESGGGLVQPGGSLRLSCAASGFTFSMYMMMWVRQAPGKGLEWVSSIYPSGGITFYADSVKGRFTISRDNSKNTLYLQMNSLRAEDTAIYYCARIKLGTVTTVDYWGQGTLVTVSSASTKGPSVFPLAPSSKSTSGGTAALGCLVKDYFPEPVTVSWNSGALTSGVHTFPAVLQSSGLYSLSSVVTVPSSSLGTQTYICNVNHKPSNTKVDKRV[sequence of human IgG1 Fc omitted]GGGGSGGGGSGGGGSGGGGSGIPPHVQKSVNNDMIVTDNNGAVKFPQLCKFCDVRFSTCDNQKSCMSNCSITSICEKPQEVCVAVWRKNDENITLETVCHDPKLPYHDFILEDAASPKCIMKEKKKPGETFFMCSCSSDECNDNIIFSEEYNTSNPD
light: QSALTQPASVSGSPGQSITISCTGTSSDVGGYNYVSWYQQHPGKAPKLMIYEVSNRPSGVSNRFSGSKSGNTASLTISGLQAEDEADYYCSSYTSSSTYVFGTGTKVTVLGQPKANPTVTLFPPSSEELQANKATLVCLISDFYPGAVTVAWKADGSPVKAGVETTKPSKQSNNKYAASSYLSLTPEQWKSHRSYSCQVTHEGSTVEKTVAPTECS
notes: also called anti-PD-L1(mut)/TGFβ Trap fusion protein; TGFβ Trap control
Regarding B1, the binding result is recorded as “no binding”.
